Several values for one entry are separate records, joined by “and”; a condition that tells them apart may be missing. Identical values can stand only once. About 50,000 (12%) of roughly 420,000 compounds were called active. Inconclusive means that the source gave no clear call. Such entries were picked first, then a sample of the others. The call rests on the fitted dose curve; in most records, active means well fitted inhibition curve with a large enough effect; inconclusive means small, poorly fitted or top-dose-only effect; inactive means flat fitted curve, though single readings scatter. No potency is given beside an inconclusive call; the fits are too rough.
Test: qHTS for Inhibitors of human tyrosyl-DNA phosphodiesterase 1 (TDP1): qHTS in cells in presence of CPT; further: nearly all actives have a fitted effect of over 55% in size
Conditions: chicken DT40 Tdp1-/-;hTDP1 cells + 20 nM CPT, ATP luminescence, 48 h; activity change, negative = growth inhibition: at 46.2 µM (top of the series)
Method in brief: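 Chicken DT40 Tdp1-/- cells stably complemented with human TDP1 were seeded at 400 cells/well in medium containing 20 nM camptothecin, exposed to pin-transferred compounds, and grown at 37 °C for at least 48 hr. Viability was read as ATP luminescence.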
On the % scale 0 is the no-effect control and ±100 the full control effect; potency means the concentration at half of the fitted maximal effect; tags describe the fitted curve by direction and shape.

SMILES | activity change, negative = growth inhibition | Potency
CN(CC(=O)Nc1cccc(F)c1)C(=O)C1CCN(C(=O)c2ccc(Cl)cc2)CC1 | inactive: -16.1% | 
COc1ccc(Cl)cc1NC(=O)[C@H]1O[C@@H]2OC(C)(C)O[C@@H]2[C@H]2OC(C)(C)O[C@H]21 |  | inconclusive [inhibitor, single point]
CC(=O)c1ccc(S(=O)(=O)N2CCN(c3nc(-c4cccnc4)nc4ccccc34)CC2)cc1 |  | active: 20.6 µM
COc1ccc(C2CC=C(C(C)=O)CN2S(=O)(=O)c2ccc(Cl)cc2)cc1 (stereo unspecified) |  | active: 23.1 µM and active: 16.4 µM
Cc1cc(C)c(NC(=O)CCn2nnc3ccccc32)c(C)c1 | inactive: -2.18% | 
CCN(CC)S(=O)(=O)c1ccc(/C=C/C(=O)Nc2ccc(N3CCOCC3)cc2)cc1 |  | inconclusive [inhibitor, single point]
CC1(c2ccccc2)O[C@@H]2C[C@H]3[C@@H]4CCC5=CC(=O)C=C[C@]5(C)[C@@]4(F)[C@@H](O)C[C@]3(C)[C@]2(C(=O)CO)O1 (stereo partly specified) |  | inconclusive [inhibitor, single point]
CCOC(=O)CCc1nc2ccccc2[nH]1 | inactive: 8.91% | 
COc1cc2ccccc2cc1C(=O)Nc1cc(C)ccn1 |  | inconclusive [inhibitor, single point]
Cc1ccc(/C=C2\SC(=S)N(CCC(=O)NNS(=O)(=O)c3ccccc3)C2=O)cc1 | inactive: 32.1% | 
Cc1noc(C)c1C(=O)N1CCN(c2ccc(OCc3ccccc3)cc2)CC1 |  | active: 14.6 µM
CCCCCCN1C[C@H](O)[C@@H](n2cc(C3CC3)nn2)C[C@@H]1c1ccc(OC)cc1 |  | inconclusive [inhibitor, single point]
O=C(c1ccccc1)c1ccc2nc(Nc3ccccc3)c3nncn3c2c1 |  | inconclusive [inhibitor, single point]
COc1ccc([C@@H]2CC=C(C(=O)O)[C@H](c3ccc(Br)cc3)N2S(=O)(=O)c2ccccc2C)cc1 | inactive: 3.07% | 
CCOc1ccccc1C(=O)Nc1ccc(S(=O)(=O)N2CCOCC2)cc1 |  | inconclusive [inhibitor, single point]
Cn1c(=O)cc(SCC(=O)Nc2cccnc2)c2ccccc21 |  | inconclusive [inhibitor, single point]
COc1ccc(CN2CCN(Cc3cc4ccccc4o3)CC2CCO)cc1C (stereo unspecified) |  | inconclusive [inhibitor, single point]
Nc1[nH]c(C(=O)c2ccccc2)c(-c2ccc(Br)cc2)c1C(=O)NC1CC1 | inactive: -9.96% | 
CC(C)c1ccc(NC(=O)NC2(C(=O)NCc3cccnc3)CCCCC2)cc1 | inactive: -1.09% | 
COC(=O)c1cc(NC(=O)CN(c2ccccc2)S(=O)(=O)N(C)C)ccc1Cl |  | inconclusive [inhibitor, single point]
O=C(NC(=S)Nc1ccc(Cl)cn1)C(c1ccccc1)c1ccccc1 |  | inconclusive [inhibitor, single point]
Cc1nn(-c2ccccc2)c2c1C(=O)NC(=O)C(C)(C)C2 | inactive: -25.9% | 
COc1cccc(NC(=O)CN(C)CC(=O)Nc2cccc(C(F)(F)F)c2)c1 | inactive: -7.26% | 

SMILES | activity change, negative = growth inhibition | Potency
COc1ccc(-n2cnc3ccccc3c2=O)c([N+](=O)[O-])c1 | inactive: -3.8% | 
Cc1cc(/C=C(\C#N)C(=O)N2CCOCC2)c(C)n1C1CCCC1 |  | inconclusive [inhibitor, single point]
Cc1ccccc1C(=O)N1CCN(c2ccc(NC(=O)c3cccc(OC(C)C)c3)cc2)CC1 |  | active: 3.66 µM
Cc1ccc(NC(=O)Cn2nnc(C(=O)NCc3ccco3)c2N)c(C)c1 | inactive: -3.92% | 
O=C(CSc1nc(-c2ccco2)cc(C(F)(F)F)n1)NC1CCCC1 |  | active: 20.6 µM
COc1ccc(-c2nc3cc(C)ccn3c2NC(=O)c2ccccc2OC)cc1 |  | inconclusive [inhibitor, single point]
Cc1cc(C)c2nc(NNC(=O)c3cc(-c4cccs4)nc4ccccc34)sc2c1 |  | active: 4.61 µM
Cc1cc(N/N=C/c2cccc(Cl)c2)nc(-n2nc(C)cc2C)n1 |  | active: 0.58 µM
CC(=O)c1cccc(Nc2nc(-c3sc(N)nc3C)cs2)c1 |  | active: 11.6 µM
COCCCNC(=O)/C(C#N)=C/c1c(N2CCN(c3ccc(OC)cc3)CC2)nc2c(C)cccn2c1=O |  | active: 23.1 µM
CCN1CCN(CCNC(=O)c2ccc(CS(=O)c3ccc(Br)cc3)o2)CC1 (stereo unspecified) | inactive: -13.4% | 
COC(=O)Oc1cncc(C(=O)O)c1 | inactive: -2.46% | 
O=C1N/C(=N/c2ccccn2)SC1Cc1ccccc1 (stereo unspecified) |  | inconclusive [inhibitor, single point]
O=S(=O)(Nc1ccc2c(c1)OCCO2)c1ccc(F)cc1 |  | inconclusive [inhibitor, single point]
O=C1CN(C(=O)CSc2nc3cc(Cl)ccc3c(=O)n2Cc2ccccc2)c2ccccc2N1 |  | inconclusive [inhibitor, single point]
CCOC(=O)c1c(C)oc2c(Cl)cc(NS(=O)(=O)c3ccc(Cl)c(C)c3)cc12 |  | inconclusive [inhibitor, single point]
N#C/C(=C/c1ccc(CNC(=O)C(=O)Nc2cc(Cl)cc(Cl)c2)o1)C(=O)NCc1cccnc1 |  | inconclusive [inhibitor, partial curve, poor fit]
CCCCN(CCCC)S(=O)(=O)c1ccc2oc(C(=O)NCc3ccccc3)c(C)c2c1 |  | active: 10.3 µM
CCC1C(c2ccccc2)N(C)C(c2ccccc2)CC1(O)c1ccccc1 (stereo unspecified) |  | inconclusive [inhibitor, single point]
COc1cc2sc3ccc(-c4ccc(N(C)C)nc4)cc3c(=O)c2cc1OC |  | active: 5.8 µM
Nc1[nH]n(-c2ccccc2)c(=O)c1N=Nc1ccc2ncsc2c1 |  | inconclusive [inhibitor, single point]
COC(=O)c1ccc(Sc2nnnn2-c2ccccc2)c([N+](=O)[O-])c1 |  | active: 16.4 µM
CCN(CC)CCCNC(=O)Cn1c(-c2cccs2)cc2cc(Cl)ccc21 |  | inconclusive [inhibitor, single point]
